From the supplement of paper PMC8728848
The other results are listed elsewhere or left out.

Experiments:
Experiment in all cases: glycan array binding signal (z-score within array); higher = stronger binding
Conditions in all cases: glycan notation: IUPAC condensed, linker removed
[1] = target: GlcNAc(a1-4)Gal(b1-3)GlcNAc
Method in brief: (§1)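 Columns mapping to the same glycan were averaged after glycan names were converted to IUPAC-condensed notation. The data come from 3228 arrays in the Consortium for Functional Glycomics database, limited to those with an available protein sequence. Binding is reported as a within-array Z-score averaged across arrays of one protein sequence and across linkers.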

[2] = target: GlcNAc(a1-4)Gal(b1-4)GalNAc
Method in brief: as §1

[3] = target: GlcNAc(a1-4)Gal(b1-4)GlcNAc
Method in brief: as §1

[4] = target: GlcNAc(a1-4)Gal(b1-4)GlcNAc(b1-3)Gal(b1-4)Glc
Method in brief: as §1

[5] = target: GlcNAc(a1-4)Gal(b1-4)GlcNAc(b1-3)Gal(b1-4)GlcNAc
Method in brief: as §1

[6] = target: GlcNAc(a1-4)Gal(b1-4)GlcNAc(b1-3)Gal(b1-4)GlcNAc(b1-3)Gal(b1-4)GlcNAc
Method in brief: as §1

[7] = target: GlcNAc(a1-4)Gal(b1-4)GlcNAc(b1-3)Gal(b1-4)[Fuc(a1-3)]GlcNAc(b1-3)Gal(b1-4)[Fuc(a1-3)]GlcNAc
Method in brief: as §1

[8] = target: GlcNAc(a1-6)Gal(b1-4)GlcNAc
Method in brief: as §1

[9] = target: GlcNAc(b1-2)Gal(b1-3)GalNAc
Method in brief: as §1

[10] = target: GlcNAc(b1-2)Man(a1-3)[GlcNAc(b1-2)Man(a1-6)]Man(b1-4)GlcNAc(b1-4)GlcNAc
Method in brief: as §1

[11] = target: GlcNAc(b1-2)Man(a1-3)[GlcNAc(b1-2)Man(a1-6)]Man(b1-4)GlcNAc(b1-4)[Fuc(a1-6)]GlcNAc
Method in brief: as §1

[12] = target: GlcNAc(b1-2)Man(a1-3)[GlcNAc(b1-4)][GlcNAc(b1-2)Man(a1-6)]Man(b1-4)GlcNAc(b1-4)GlcNAc
Method in brief: as §1

[13] = target: GlcNAc(b1-2)Man(a1-3)[GlcNAc(b1-4)][GlcNAc(b1-2)Man(a1-6)]Man(b1-4)GlcNAc(b1-4)[Fuc(a1-6)]GlcNAc
Method in brief: as §1

[14] = target: GlcNAc(b1-2)[GlcNAc(b1-4)]Man(a1-3)[GlcNAc(b1-2)Man(a1-6)]Man(b1-4)GlcNAc(b1-4)GlcNAc
Method in brief: as §1

[15] = target: GlcNAc(b1-2)[GlcNAc(b1-4)]Man(a1-3)[GlcNAc(b1-4)][GlcNAc(b1-2)Man(a1-6)]Man(b1-4)GlcNAc(b1-4)GlcNAc
Method in brief: as §1

[16] = target: GlcNAc(b1-2)[GlcNAc(b1-4)]Man(a1-3)[GlcNAc(b1-4)][GlcNAc(b1-2)[GlcNAc(b1-6)]Man(a1-6)]Man(b1-4)GlcNAc(b1-4)GlcNAc
Method in brief: as §1

[17] = target: GlcNAc(b1-2)[GlcNAc(b1-4)]Man(a1-3)[GlcNAc(b1-4)][GlcNAc(b1-2)[GlcNAc(b1-6)]Man(a1-6)]Man(b1-4)GlcNAc(b1-4)[Fuc(a1-6)]GlcNAc
Method in brief: as §1

[18] = target: GlcNAc(b1-2)[GlcNAc(b1-6)]Man(a1-6)[GlcNAc(b1-2)Man(a1-3)]Man(b1-4)GlcNAc(b1-4)GlcNAc
Method in brief: as §1

[19] = target: GlcNAc(b1-2)[GlcNAc(b1-6)]Man(a1-6)[GlcNAc(b1-2)Man(a1-3)]Man(b1-4)GlcNAc(b1-4)[Fuc(a1-6)]GlcNAc
Method in brief: as §1

B1: PX9937B-bvu-524-33-524 (Bacteroides vulgatus) (protein)
chain: GTAYWKNPDQFTAFNTGLHALLREKSYNFFLLGEPRADIYGDNPIGGEASQGMERLPFNTINKENVGISNYGDMYKIINQINQMIAKTTETTILTEATQNYYLGEAYGMRAYLYFHLLRSWGDVVLYLDYTEGQNLDLSNITKGVSPATEVMEQIKKDIQASENAFGSDYSFKLGRHFWSAAATQMLKGEAYLWSGRQMNGGNSDYTIAKNAFENVKKADVGLVTSSFKDIFSFENKKNKEMIFTIHNGKDEYEMWGGYYRMRLIPAQDKMVKIYCDENGNSFVGTPDAQLNGLTQLQVRREFYFKGFRNNDTRWTTSLKAVYKKDAQGVVSYFGPITYKFQGTMLEGGSTRSFLDDFPIYRYADCLLQLAMAKVLLGEDPTEEINAVRERAYGSKYFNEHKAEIAYPNDNDPEFYTDNKWMKPDNAGALEAILKERLREFMFEGKRWYDIRLLGWDYVHQYSSAEQSRLLWPIDAGTLTNNSALKQTPGYE
glycan array binding signal (z-score) [1]: -0.258 | glycan array binding signal (z-score) [2]: -0.453 | glycan array binding signal (z-score) [3]: -0.158 | glycan array binding signal (z-score) [4]: -0.179 | glycan array binding signal (z-score) [5]: -0.254 | glycan array binding signal (z-score) [6]: -0.272 | glycan array binding signal (z-score) [7]: 0.453 | glycan array binding signal (z-score) [8]: -0.343 | glycan array binding signal (z-score) [9]: -0.133 | glycan array binding signal (z-score) [10]: -0.297 | glycan array binding signal (z-score) [11]: -0.373 | glycan array binding signal (z-score) [12]: -0.477 | glycan array binding signal (z-score) [13]: -0.1 | glycan array binding signal (z-score) [14]: -0.328 | glycan array binding signal (z-score) [15]: -0.346 | glycan array binding signal (z-score) [16]: -0.343 | glycan array binding signal (z-score) [17]: -0.459 | glycan array binding signal (z-score) [18]: -0.25 | glycan array binding signal (z-score) [19]: -0.01
